Measurements: the RNAGym collection of RNA variant scans (doi:10.1093/nar/gkz1192)
The source gives no read counts; variants with many changes may rest on few reads.

B1: CPEB3 Ribozyme (parent)
chain: UAACAGGGGGCCACAGCAGAAGCGUUCACGUCGCAGCCCCUGUCAGAUUCUGGUGAAUCUGCGAAUUCUGCUGUAUAUCUC

Variants of: B1
Assay: self-cleavage, relative activity (ratio to wild type); higher = more cleavage; in vitro, sequencing
Method in brief: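 Barcoded CPEB3 ribozyme mutants, produced by rounds of error-prone PCR, self-cleaved while being transcribed with T7 RNA polymerase for 5 hours at 37°C and during a subsequent 15 min DNase I step before EDTA was added. Sequencing of template-switched cDNA on Illumina gave cleaved and total reads, and DNA sequencing assigned barcodes to variants. Each variant's relative activity is its cleaved/total read fraction divided by the unmutated ribozyme's fraction, averaged across three batches. A variant needed a minimum of 5 reads.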

Variant	self-cleavage
A5G C17U U80A	0.32
A5G A57G C68A U72C A77G C79G	0.14
A5G A28U U31A U41A C50A	0.08
A5G C11G U26A A47G U69A	0.18
A5G A35G U80C	1.19
A5G C11A A21G A45C U49A	0.08
A5G A47G U69A	0.59
A5G C11A C27A C34G U72C U80A	0.32
A5G C27U A35G A65C	0.19
A5G A35U A45U	0.24
A5G A28U A35U C40A U43C U67A U69C	0.04
A5G A35G U43C A56U	0.38
A5G A47G G70U	0.22
A5G C23A A64U	0.28
A5G C29U C32U U48C U49C A57U U58C	0.09
A5G A28U A35G U41A A64U	0.15
A5G C23G U26A A45U U69A	0.11
A5G C23A A35G U49C U67C	0.13
A5G C17U U25C C40A U54A U60A A64G	0.12
A5G C17A A28G U78C	0.09
A5G A47G U48C C81U	0.38
A5G A28G U67A	0.5
A5G A28G U67C	0.12
A5G A35U U49A U58A U60C C62U U80A	0.05

Variant	self-cleavage
A5G A56U U78A U80A	0.44
A5G A35G G36A A77G U78C	0.42
A5G A28U U78A	0.89
A5G A45C A57U U58A	0.45
A5G A28U U48C U51C U72A	0.37
A5G A64U A77G	0.08
A5G A35G U60A U74G	0.97
A5G A57G U66C U67C U69A U76C	0.39
A5G A65G C79A	0.46
A5G A45U A64U A75U	0.28
A5G A45U A47G	0.31
A5G C17G A18U U25C U54C U72A	0.25
A5G A57G U58A C71U	0.43
A5G A35G G63A	1.11
A5G A28G U60A	0.46
A5G C17A U26C A35G C50U	0.09
A5G A56G A57U A77G	0.14
A5G A35U A64U	0.18
A5G A64U U66C C68A	0.23
A5G C12U G52U A65G U69A	0.08
A5G C32A U69C	0.12
A5G C29U U41A A64U U72G	0.21
A5G A35G U48C G52C U72C	0.5
A5G C11G U74C C81A	1.14

Variant	self-cleavage
A5G A35U A45G U49C	0.29
A5G A35U U58G U80A	0.13
A5G A45U A47G A65G U67A	0
A5G C11U A20G	0.33
A5G C14U A18G U41C U43A U80A	0.19
A5G C14U U25C A35U A45U	0.05
A5G C11U U43C	0.36
A5G A56G A65G U66C	0.27
A5G C23U U66C	0.08
A5G A57G A65G	0.33
A5G A56G U80A	0.84
A5G C23G U25C U51G U54A	0.08
A5G C14U U26C C37U A56U U78C	0.07
A5G A28G U43C U67C U80A	0.05
A5G A64G U66A U67C U78A	0.13
A5G A57G U66C	0.35
A5G C29G U41C	0.36
A5G C32A C37A	0.47
A5G A47G U80C	0.81
A5G A65G U80A	0.43
A5G C23U A35G U60C A64U U67C U78C	0.1
A5G A28G U43C U67C U78A	0.08
A5G C12G A21U U31A A45G C68A	0.03
A5G A65G U74A	0.26

Variant	self-cleavage
A5G C17U U31C A47G U72A	0.06
A5G C29G U31C G36A U51A A56G U74C	0.08
A5G C23U G24A U25C C27A	0.48
A5G C11G C39G U60A U67A U69A	0.16
A5G C11U A18U G24A A45G U58C	0.06
A5G A35G A64U	0.42
A5G A47G U69A U72C	0.31
A5G C27A U51A U69C A75U	0.22
A5G A56G U74C	1.07
A5G A45U U69C	0.18
A5G A45U U78C	0.41
A5G A28U U41C U60A	0.17
A5G C11U A45G	0.49
A5G C14U U43C A57G U66A U78C	0.08
A5G A45U A75U	0.58
A5G C17G A18G U41C U54A	0.37
A5G A28G U49G	0.1
A5G A56G A64G	0.49
A5G A56G A64G U72A U80C	0.65
A5G A57G U80C	0.77
A5G C17U A47G A56G	0.13
A5G C23A U25C U41C U49A A77U	0.06
A5G C34A U41C U60C U78C	0.26
A5G C23U A35G U60C U69C	0.1

Variant	self-cleavage
A5G C23U U41C U48C U54C	0.09
A5G C12U A64G U67C	0.11
A5G A35G C71U	0.78
A5G A35G A45C U48C U51A	0.3
A5G A45U U54C U60A	0.69
A5G C23G U72A	0.09
A5G C17G A18G	0.41
A5G C23G G46U U76A	0.09
A5G C17G A20G C32G U60C	0.05
A5G A35G A57U U60C	0.16
A5G C11U G30A U72C A75G	0.22
A5G C29U G30C G52A U72C U74A	0.09
A5G C12U C14A A21G U51C U60C	0.2
A5G A56U U67C U72A	0.14
A5G C23G C29U U69A U72C	0.1
A5G C11U U43C A64U U80C	0.28
A5G A35G A45G A56G U58C A75U U78C	0.25
A5G C23A U41A U58A U69C	0.07
A5G A65U A75U	0.19
A5G C11G U26A A64U U78C	0.03
A5G A28U A56G U60C U80C	0.1
A5G C11G A28G U78C	0.49
A5G C11U U26A A35U	0.12
A5G A35G A47G U60A U80C	0.68

Variant	self-cleavage
A5G A56U U58A U60C U67C	0.08
A5G A28U A65G	0.33
A5G A57U G63U U78C	0.5
A5G C23G U41A U80C	0.1
A5G A28G U54C A64G U76C U78C	0.42
A5G A45G U78C	0.46
A5G A56C U74C U80C	0.27
A5G C17U U31C U60A	0.15
A5G C29G A64G	0.15
A5G C11U A15G G73A	0.53
A5G C27A C38A U80A	0.23
A5G C14U A28G U49C U51C	0.11
A5G A56G C79U	0.29
A5G A28U A35G A64G U78C	1.03
A5G C11G U43A U48A U72C U74C	0.28
A5G A35G A56G C68A	0.61
A5G A35G U51C U60C	0.33
A5G C14U A15U U31C U51C C68A	0.26
A5G C29U G52C A56G	0.41
A5G C14A U58A U76C	0.06
A5G C29U A75U U76A	0.56
A5G C11U G19U U41A	0.08
A5G A45U U51A U58C U74A	0.27
A5G A47U U48C U67A U78C	0.14

Variant	self-cleavage
A5G C11U U41C U43C	0.3
A5G A45G U60A	0.36
A5G C17G A28G U78C	0.36
A5G A28U G36A U54C	0.33
A5G A45C U67C	0.09
A5G C29U G30C G52U A57G	0.16
A5G C23U U26C U31A U72C	0.04
A5G A35U A56G U66C	0.18
A5G A64G U74C	0.91
A5G C23U A35G U60C U67C U78A	0.07
A5G A56U A64C U66C	0.12
A5G C23A U43C U51C U54C U69C	0.06
A5G C23U A35G U60C U67C	0.15
A5G C12U A28G	0.7
A5G C23A A35G U60C U67C	0.1
A5G C27G U51A A57G	0.29
A5G A64U U78C	0.09
A5G A64G U67C	0.29
A5G A28U A35G	1.26
A5G C23A U69C	0.39
A5G C32A G52A U60C A65G	0.12
A5G C29U U51C A64G	0.19
A5G C12U A75U U78C	1.1
